From article PMC10478803, “Contributions of the N-terminal flanking residues of an antigenic peptide from the Japanese cedar pollen allergen Cry j 1 to the T-cell activation by HLA-DP5” (International Immunology, 2023)

Columns and labels:
[1] = tested on: TCR(SU3–3)-TG40 and TCR(NM-4)-TG40 cells; experiment: IL-2 production assay with HLA-DP5-expressing mDC1 cells; conditions: antigen doses > 3 µg ml^−1 (P < 0.05)
[2] = tested on: HLA-DP5 extracellular region (DPA1*02:02 and DPB1*05:01); conditions: crystal structure at 2.4 Å; ref [13]; cited from earlier work
Excerpt: For Chamaecyparis obtusa (Cha o, Japanese cypress) polle ...

[3] = biological target: HLA-DP5 (DPA1*02:02 and DPB1*05:01) (Homo sapiens, UniProt P04440+P20036, A42M/A65V/A84E/F191V/F64L/G113D/G114E/K142R/L158P/M116V/M62Q/P115A/Q81R/R125K/T114A/T199I/T259P/V234M); experiment: Peptide competition assay with biotin-conjugated HA1 peptide on HLA-DP5-transfected HEK293 cells; assay type: binding
[4] = tested on: mDC1 cells (mouse antigen-presenting dendritic cell line 1); experiment: Uptake of TAMRA-labeled NF-pCj1 into mDC1 cells; conditions: TAMRA MFI, 1 μM, 3.5 h at 37°C
[5] = tested on: HLA-DP5 expressed on mDC1 cells; experiment: Cell-surface peptide-display assay on HLA-DP5-expressing mDC1 cells; conditions: same levels of peptide uptake and HLA-DP5 expression; vs WT

## KVTVAFNQF [pCj1]
[1]
  difference of IL-2 production from NF[WT]-pCj1 (in words): significant differences in the IL-2 production
[2]
  binding in the peptide-binding groove (in words): bound within the PBG

## WT NF-pCj1: C-terminally-flanked version of NF-pCj1 (16-residue) (DKSMKVTVAFNQFGPN)
[3]; HLA-DP5-expressing HEK293 cells, 24 h, 16-residue peptides
  competition with the HA1 peptide (in words): competed with the HA1 peptide well

## NF[S(P–2)E/K(P–3)E]-pCj1: double mutation of Ser(–2) and Lys(–3) to Glu in a 13-residue Cry j 1 peptide (NF-pCj1) (DEEMKVTVAFNQF)
[1]
  difference of IL-2 production from NF[WT]-pCj1 (in words): significant differences in the IL-2 production
[3]; S(P–2)E/K(P–3)E vs WT NF-pCj1, competitive binding assay
  decrease of affinity for HLA-DP5 by the double mutation: about 2 fold

## DEEMKVTVAFNQF-GPN-EG2-TAMRA
[4]
  effect of NF mutation S(P–2)E/K(P–3)E on uptake (in words): not affected
[5]
  decrease of amount displayed on the mDC1 surface by the S(P–2)E/K(P–3)E mutations: about 2 fold
